Results: paper PMC3493617 (Journal of the American Chemical Society, 2012)

Assays:
Assay type in all cases: biochemical
[1] = molecular target: AfUGM Y317A (Aspergillus fumigatus, UniProt Q4W1X2, Y317A)
[2] = molecular target: AfUGM R447A (Aspergillus fumigatus, UniProt Q4W1X2, R447A)
[3] = molecular target: AfUGM Y104A (Aspergillus fumigatus, UniProt Q4W1X2, Y104A)

NC(=O)C1=CN([C@@H]2O[C@H](COP(=O)(O)OP(=O)(O)OC[C@H]3O[C@@H](n4cnc5c(N)ncnc54)[C@H](OP(=O)(O)O)[C@@H]3O)[C@@H](O)[C@H]2O)C=CC1 [NADPH]
decrease in catalytic efficiency ([1]; Tyr317 mutation vs AfUGM): 3 fold
Kd ([1]; Y317A mutant): 100 ± 10 µM
Variational Effect (kred/Kd of variant)/(kred/Kd of AfUGM) ([1]; Y317A mutant): 0.28 ± 0.03
kred/Kd ([1]; Y317A mutant): 34000 ± 3000 M⁻¹ s⁻¹
kred ([1]; Y317A mutant, anaerobic, 15 °C, pH 7.0): 3.36 ± 0.09 s⁻¹
Kd ([2]; R447A mutant): 39 ± 6 µM
Variational Effect (kred/Kd of variant)/(kred/Kd of AfUGM) ([2]; R447A mutant): 0.0005 ± 0.0001
kred/Kd ([2]; R447A mutant): 60 ± 10 M⁻¹ s⁻¹
kred ([2]; R447A mutant, anaerobic, 15 °C, pH 7.0): 0.0024 ± 0.00007 s⁻¹
factor by which catalytic efficiency is lowered ([2]; R447A vs AfUGM): 2000 fold
decrease in catalytic efficiency ([3]; Tyr104 mutation vs AfUGM): 3 fold
Kd ([3]; Y104A mutant): 54 ± 4 µM
Variational Effect (kred/Kd of variant)/(kred/Kd of AfUGM) ([3]; Y104A mutant): 0.34 ± 0.04
kred/Kd ([3]; Y104A mutant): 41000 ± 3000 M⁻¹ s⁻¹
kred ([3]; Y104A mutant, anaerobic, 15 °C, pH 7.0): 2.20 ± 0.04 s⁻¹
